Assay results: publication PMC12136788
The list shows a part of the results.

T1: UNK ZnF1-6 (called full-length) (human, UniProt Q9C0B0 30-357)
T1 sequence: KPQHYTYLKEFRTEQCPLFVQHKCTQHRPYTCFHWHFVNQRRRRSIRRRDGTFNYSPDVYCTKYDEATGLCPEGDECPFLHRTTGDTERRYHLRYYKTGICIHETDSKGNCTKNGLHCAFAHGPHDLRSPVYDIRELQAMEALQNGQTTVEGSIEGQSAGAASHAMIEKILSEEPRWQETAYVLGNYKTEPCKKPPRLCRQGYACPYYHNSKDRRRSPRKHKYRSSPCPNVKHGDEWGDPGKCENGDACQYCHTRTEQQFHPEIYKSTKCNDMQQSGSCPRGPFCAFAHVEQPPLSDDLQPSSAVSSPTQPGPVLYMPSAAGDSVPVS

B1: chr6:32841530:32841735:-|CDS|ENSG00000204264|control|control|control (ssRNA)
RNA: GGGAGUUCUACAGUCCGACGAUCACGGGUAGUGGGAACACUUAUGCCUACGGGGUCAUGGACAGUGGCUAUCGGCCUAAUCUUAGCCCUGAAGAGGCCUAUGACCUUGGCCGCAGGGCUAUUGCUUAUGCCACUCACAGAGACCAACAGAGGAUUGAGCAUCA
B2: chr12:39553410:39553513:-|3pUTR|ENSG00000173208|unk|FALSE|unique (ssRNA)
RNA: GGGAGUUCUACAGUCCGACGAUCUAAGAUUCAAACUUUGAGUGACAUUUAGUCCAUUUAUGGUUGAUAUUAGGUUUAAUAGCUAGAAUUCAAAUUGAUUAUUGCUAGUGGCCAACUAAACCUGUACAAAAUAGCUGACAGUUUCAACAGAGGAUUGAGCAUCA
B3: chrX:53432280:53432385:-|CDS|ENSG00000072506|unk|FALSE|unique (ssRNA)
RNA: GGGAGUUCUACAGUCCGACGAUCUGAGAAGGAUGUGCAAACAGCUCUGGCUCUAGCAAAAGGAAAGUUUGGCCGUGUGGAUGUAGCUGUCAACUGUGCAGGCAUCGCGGUGGCUAGCAAGACGUACAACUUAAAGAAGGGCCACAACAGAGGAUUGAGCAUCA
B4: chrX:100644401:100644502:+|5pUTR|ENSG00000102359|unk|FALSE|bound_elsewhere (ssRNA)
RNA: GGGAGUUCUACAGUCCGACGAUCUUAACAGAAUCCCGGAGGCCGGGACAGACCAGGAGCCACUCGUUCUAGGAAUGUUAAAGUAGAAGGUUUUUUCCAAUUGAUGAGAGGAGCAGAGAGGAAGGAGAAAGAGGAGGAGAGAGACAACAGAGGAUUGAGCAUCA
B5: chr19:45489345:45489553:-|CDS|ENSG00000125744|control|control|control (ssRNA)
RNA: GGGAGUUCUACAGUCCGACGAUCAGGACGUCAGGAGUGGUCUUCACAGGCCUGAUGGUCUCCCUCCUCUGCCUCCUGCACUUUAGCAUCGUGUCCGUGGCCGCGCACUUGGCUCUGUUGCUGCUCUGCGGCACCAUCUCUCUCCAACAGAGGAUUGAGCAUCA
B6: chr10:86890108:86890218:+|CDS|ENSG00000107779|unk|FALSE|unique (ssRNA)
RNA: GGGAGUUCUACAGUCCGACGAUCUCAUGGCACUGGGAUGAAAUCAGACUCCGACCAGAAAAAGUCAGAAAAUGGAGUAACCUUAGCACCAGAGGAUACCUUGCCUUUUUUAAAGUGCUAUUGCUCAGGGCACUGUCCAGAUGACAACAGAGGAUUGAGCAUCA
B7: chr3:52708059:52708100:+|3pUTR|ENSG00000114902|msi1_unk|total|mutant (ssRNA)
RNA: GGGAGUUCUACAGUCCGACGAUCACACAAGUAUGAAGUUUCUUUCAGGUGUAAAUAAUGAAAAAUAAAUGCCUCAUAAAUGACCGUACAAUGUAACUAUCAAAGUUUUAUAAUUCAUUAUGAGUUAACCAUUUUAAUGUUUCCCAACAGAGGAUUGAGCAUCA
B8: chr2:101892430:101892531:+|3pUTR|ENSG00000071054|msi1|total|mutant (ssRNA)
RNA: GGGAGUUCUACAGUCCGACGAUCCCAUCCGAGGUUGAUGGGGCAACUGCAGCCCAUGACACAAGAUCUCAUUGUUCUCGAUGCCGAGGGGUUGGCCGCAGACAGGUGGUUACAUCCGAACCGUCACACAAACUGUUCAGUGUUCAACAGAGGAUUGAGCAUCA
B9: chr10:70774212:70774357:-|CDS|ENSG00000166220|control|control|control (ssRNA)
RNA: GGGAGUUCUACAGUCCGACGAUCAAAAGACCUCGCUCUGGGACUCCUGCAGACAGCAGUGGCUCAGCUCCUUCCCCAGCCCCUAGUCUCCAUCCCUACAGAAAAGCUCCUAAGCCAGCUUCCAGAAGUGCAUGAACCUCCUCACAACAGAGGAUUGAGCAUCA
B10: chr4:173248057:173248158:+|CDS|ENSG00000109586|unk|total|mutant (ssRNA)
RNA: GGGAGUUCUACAGUCCGACGAUCUUCAAACCUGUGGUACCAUGGCCUCAUGUUGAAGGAGCCGAAGUGGACUCCGAGUCUAUCCGAAGAAUAAACAAGGCCAAAAAUGAACAAGAGCACCAUGCUGGAGGAGAUUCCCAGAAACAACAGAGGAUUGAGCAUCA
B11: chr20:59325757:59325866:+|3pUTR|ENSG00000124205|unk|total|mutant (ssRNA)
RNA: GGGAGUUCUACAGUCCGACGAUCUUAUGUGGAUCUGUUCAAAGCCGUCACUGUAUAUACGUACCGAGAGGCCGACCGGCCGGCCGAUUUUAAAUUGCAUUCUGAAUACAAACUCAUACUCCUCCGAGCUUGAAUUACAUUUUUCAACAGAGGAUUGAGCAUCA
B12: ENSG00000124766:be:win_751|CDS|ENSG00000124766|bound_else_gene|NA|bound_elsewhere_windowed (ssRNA)
RNA: GGGAGUUCUACAGUCCGACGAUCGGCGCCGCCGCCGACCACCACUCGCUGUACAAGGCGCGGACUCCCAGCGCCUCGGCCUCCGCCUCCUCGGCAGCCUCGGCCUCCGCAGCGCUCGCGGCCCCGGGCAAGCACCUGGCGGAGCAACAGAGGAUUGAGCAUCA
B13: ENSG00000180447:stop:overlap|stop_codon|ENSG00000180447|stop_codon|NA|stop_codon (ssRNA)
RNA: GGGAGUUCUACAGUCCGACGAUCCCCGGGGCGCCUGGACCCCACUCGCCUCCAUCUUGCUGCUGCUGCUUGGGCCGCUCUUUUAGCCCUCGCGCCCCCCGCCGUUGGCUGCGGGAGAGCCCGCGUCCCACUCCCGUGCUCGCCCAACAGAGGAUUGAGCAUCA
B14: ENSG00000107863:be:win_3901|CDS|ENSG00000107863|bound_else_gene|NA|bound_elsewhere_windowed (ssRNA)
RNA: GGGAGUUCUACAGUCCGACGAUCGUGUUUGGUCCCACCCUUGUUCGAACAUCAGAAGACAACAUGACCCACAUGGUCACCCACAUGCCUGACCAGUACAAGAUUGUAGAAACGCUCAUCCAGCACCAUGACUGGUUUUUCACACAACAGAGGAUUGAGCAUCA
B15: chr7:137227872:137228000:-|3pUTR|ENSG00000105894|msi1_unk|total|mutant (ssRNA)
RNA: GGGAGUUCUACAGUCCGACGAUCGGAACAUAAAAAGGACAUCAGCAAACAGGAUCAGUUAACUAUUGCAUUUAUAUGUACCGCCGGCUUUGUAUUCAAAAAUUAUCUACCGCUAAGUACACAAUAAGCAAAAACAAAAAGAAACAACAGAGGAUUGAGCAUCA
B16: chrX:18604022:18604123:+|CDS|ENSG00000008086|msi1|FALSE|unique (ssRNA)
RNA: GGGAGUUCUACAGUCCGACGAUCGACGAAGGUCUCCCUGCCAAUGAAAGCUUCCUAAAUGGAAACCUUGCUGGAGCUAGUCUUAGUCCACUGCACACCAAAACCUACCAAGCAAGCAGCCAGCCUGGGUCUACCAGCAAAGAUCAACAGAGGAUUGAGCAUCA
B17: chr14:22612100:22612201:+|3pUTR|ENSG00000100439|msi1|total|mutant (ssRNA)
RNA: GGGAGUUCUACAGUCCGACGAUCCCACCCCUGACCCAUCUGUCAGCUUUUUCCCAGGGAGCCGUUUCAGGGGUUCUGGGCAGCCGGCUGGGCCUGGCCUCAGAACCUGGUGGCUCCUGCCUGCUCCUUCACUUUUGUAAAACCCAACAGAGGAUUGAGCAUCA
B18: chr1:236581285:236581397:-|CDS|ENSG00000119285|unk|FALSE|unique (ssRNA)
RNA: GGGAGUUCUACAGUCCGACGAUCCAUCUAGAAGAUGUUUUUCAGUUAUUCAAGUUCUGUUCUGUUUUAUGGACCUAUGGUUCUAGCCUUUCAAAUCCACUAAACUGCAGUGUGAAAACAGUGCUGCAGACUCAAGCUCUUUAUCAACAGAGGAUUGAGCAUCA
B19: chr7:21908192:21908293:-|CDS|ENSG00000164649|msi1|total|mutant (ssRNA)
RNA: GGGAGUUCUACAGUCCGACGAUCUUUUCCCGCGCACGCUUACAGAAUGAGAAAAAAACAAUUCUUGAAAGAAAGAAAGACUGCCGACAGGUGAUACAAAGGGAAGAUUCUACCUCUGAGUCUGAGGAUGACUCUCGGGAUGAGCAACAGAGGAUUGAGCAUCA
B20: chr3:48467913:48467962:-|3pUTR|ENSG00000164054|msi1_unk|total|mutant (ssRNA)
RNA: GGGAGUUCUACAGUCCGACGAUCCCCAGACAUGAAUACCUCGUGUUCCUCCUCCCUCUAUUACUGUUUCACCAGAGCUGUCUCCGCUCAAAUCUGUUGUGUUUCUGAGUCCCGGGUCUGUACACUUGUUUAUAAUAAAUGCAACAACAGAGGAUUGAGCAUCA
B21: chr20:23354638:23354749:+|3pUTR|ENSG00000132661|unk|FALSE|unique (ssRNA)
RNA: GGGAGUUCUACAGUCCGACGAUCAAGUUCUAGGAGUCCCUUUCCUGAAUAUAUACUUGUUUGUCAUAGUUUCCUUUUCAAAGUAGUAAACUUUUCUAUUUUUCUACUUGCCCAGUAGAGACUCUGAUUCUGGAAAUUCUGACACAACAGAGGAUUGAGCAUCA
B22: chr13:29511929:29512034:-|3pUTR|ENSG00000139514|msi1_unk|FALSE|overlapping (ssRNA)
RNA: GGGAGUUCUACAGUCCGACGAUCUAUCAUAUCCCUCAUUUCUUUCCCUGAAAUAAAAAUACACACAAGCAAAAAAAAAAUGAUAGUUUCACAUCUCUUAGUUCCCUUGCCCAAACAAGAAUAUUCUUAGUUCCACUGGCCAGGCAACAGAGGAUUGAGCAUCA

target: T1, UNK ZnF1-6 (called full-length); test: nsRBNS (natural sequence RNA bind-n-seq); RBNS binding buffer (assumed for nsRBNS): 25 mM Tris pH 7.5, 150 mM KCl, 3 mM MgCl2, 0.01% Triton X-100, 500 ug/ml BSA, 20 U/ml SUPERase-In, 4 C; UNK is unkempt and MSI1 is Musashi-1; names of the RNAs are library labels; protein concentration not given here; high values mean tight binding

| Binder | binding signal |
| --- | --- |
| B1 | 0.431 enrichment R |
| B2 | 1.69 enrichment R |
| B3 | 0.758 enrichment R |
| B4 | 1.6 enrichment R |
| B5 | 0.915 enrichment R |
| B6 | 0.599 enrichment R |
| B7 | 0.406 enrichment R |
| B8 | 0.578 enrichment R |
| B9 | 1.26 enrichment R |
| B10 | 0.414 enrichment R |
| B11 | 0.421 enrichment R |
| B12 | 0.661 enrichment R |
| B13 | 0.701 enrichment R |
| B14 | 0.634 enrichment R |
| B15 | 0.517 enrichment R |
| B16 | 0.857 enrichment R |
| B17 | 0.714 enrichment R |
| B18 | 1.2 enrichment R |
| B19 | 0.512 enrichment R |
| B20 | 0.878 enrichment R |
| B21 | 1.22 enrichment R |
| B22 | 1.65 enrichment R |
